Test results: article PMC9911399, “Two distinct binding modes provide the RNA-binding protein RbFox with extraordinary sequence specificity”
Residue numbers refer to the chain shown, from its start. Some of the results follow.

T1: RBFOX1 RRM RbFoxmut (Fox-RRM*) (Homo sapiens, UniProt Q9NWB1 109-208, R118D;E147R;N151S;E152T)
T1 sequence: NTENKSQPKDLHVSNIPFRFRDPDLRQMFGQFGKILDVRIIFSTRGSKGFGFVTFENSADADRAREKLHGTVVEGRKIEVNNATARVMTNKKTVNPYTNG

B1: UGAGUUC (DNA:RNA)
RNA: GGGAGACCGGAAUUCAGAUUGUCCUGAGUUCUUAAAUCCCGUCGUAGCCACCA
DNA 1: CAATCTGAATTCCGGTCTCCC
DNA 2: TGGTGGCTACGACGGGATT
B2: UACCGCC (DNA:RNA)
RNA: B1 RNA with G26A, A27C, G28C, U29G, U30C
DNA 1: CAATCTGAATTCCGGTCTCCC
DNA 2: TGGTGGCTACGACGGGATT
B3: CUAGAAC (DNA:RNA)
RNA: B1 RNA with U25C, G26U, U29A, U30A
DNA 1: CAATCTGAATTCCGGTCTCCC
DNA 2: TGGTGGCTACGACGGGATT
B4: CACAGCG (DNA:RNA)
RNA: GGGAGACCGGAAUUCAGAUUGUCCCACAGCGUUAAAUCCCGUCGUAGCCACCA
DNA 1: CAATCTGAATTCCGGTCTCCC
DNA 2: TGGTGGCTACGACGGGATT
B5: CUGCGCA (DNA:RNA)
RNA: B4 RNA with A26U, C27G, A28C, G31A
DNA 1: CAATCTGAATTCCGGTCTCCC
DNA 2: TGGTGGCTACGACGGGATT
B6: UCCCAUU (DNA:RNA)
RNA: B1 RNA with G26C, A27C, G28C, U29A, C31U
DNA 1: CAATCTGAATTCCGGTCTCCC
DNA 2: TGGTGGCTACGACGGGATT
B7: GCACGAU (DNA:RNA)
RNA: B4 RNA with C25G, A26C, C27A, A28C, C30A, G31U
DNA 1: CAATCTGAATTCCGGTCTCCC
DNA 2: TGGTGGCTACGACGGGATT
B8: GGGAGUC (DNA:RNA)
RNA: B1 RNA with U25G, A27G, G28A, U29G
DNA 1: CAATCTGAATTCCGGTCTCCC
DNA 2: TGGTGGCTACGACGGGATT
B9: UCCUUAU (DNA:RNA)
RNA: B1 RNA with G26C, A27C, G28U, U30A, C31U
DNA 1: CAATCTGAATTCCGGTCTCCC
DNA 2: TGGTGGCTACGACGGGATT
B10: AACGGAU (DNA:RNA)
RNA: B4 RNA with C25A, A28G, C30A, G31U
DNA 1: CAATCTGAATTCCGGTCTCCC
DNA 2: TGGTGGCTACGACGGGATT
B11: GUAGUGA (DNA:RNA)
RNA: B1 RNA with U25G, G26U, U30G, C31A
DNA 1: CAATCTGAATTCCGGTCTCCC
DNA 2: TGGTGGCTACGACGGGATT
B12: UCCUAAA (DNA:RNA)
RNA: B4 RNA with C25U, A26C, A28U, G29A, C30A, G31A
DNA 1: CAATCTGAATTCCGGTCTCCC
DNA 2: TGGTGGCTACGACGGGATT
B13: AUUUAUG (DNA:RNA)
RNA: B4 RNA with C25A, A26U, C27U, A28U, G29A, C30U
DNA 1: CAATCTGAATTCCGGTCTCCC
DNA 2: TGGTGGCTACGACGGGATT
B14: AAACUCU (DNA:RNA)
RNA: B4 RNA with C25A, C27A, A28C, G29U, G31U
DNA 1: CAATCTGAATTCCGGTCTCCC
DNA 2: TGGTGGCTACGACGGGATT
B15: UGCGAUA (DNA:RNA)
RNA: B1 RNA with A27C, U29A, C31A
DNA 1: CAATCTGAATTCCGGTCTCCC
DNA 2: TGGTGGCTACGACGGGATT
B16: CCCUUCC (DNA:RNA)
RNA: B4 RNA with A26C, A28U, G29U, G31C
DNA 1: CAATCTGAATTCCGGTCTCCC
DNA 2: TGGTGGCTACGACGGGATT
B17: CCGGGAA (DNA:RNA)
RNA: B4 RNA with A26C, C27G, A28G, C30A, G31A
DNA 1: CAATCTGAATTCCGGTCTCCC
DNA 2: TGGTGGCTACGACGGGATT
B18: GGCGGCA (DNA:RNA)
RNA: B4 RNA with C25G, A26G, A28G, G31A
DNA 1: CAATCTGAATTCCGGTCTCCC
DNA 2: TGGTGGCTACGACGGGATT
B19: UGCGAUU (DNA:RNA)
RNA: B1 RNA with A27C, U29A, C31U
DNA 1: CAATCTGAATTCCGGTCTCCC
DNA 2: TGGTGGCTACGACGGGATT
B20: UUAUACU (DNA:RNA)
RNA: B1 RNA with G26U, G28U, U29A, U30C, C31U
DNA 1: CAATCTGAATTCCGGTCTCCC
DNA 2: TGGTGGCTACGACGGGATT
B21: UUCUUCA (DNA:RNA)
RNA: B4 RNA with C25U, A26U, A28U, G29U, G31A
DNA 1: CAATCTGAATTCCGGTCTCCC
DNA 2: TGGTGGCTACGACGGGATT
B22: GGGGCUC (DNA:RNA)
RNA: B1 RNA with U25G, A27G, U29C
DNA 1: CAATCTGAATTCCGGTCTCCC
DNA 2: TGGTGGCTACGACGGGATT
B23: GGGGGUU (DNA:RNA)
RNA: B1 RNA with U25G, A27G, U29G, C31U
DNA 1: CAATCTGAATTCCGGTCTCCC
DNA 2: TGGTGGCTACGACGGGATT
B24: GUAAAGA (DNA:RNA)
RNA: B4 RNA with C25G, A26U, C27A, G29A, C30G, G31A
DNA 1: CAATCTGAATTCCGGTCTCCC
DNA 2: TGGTGGCTACGACGGGATT
B25: GAGAGCA (DNA:RNA)
RNA: B4 RNA with C25G, C27G, G31A
DNA 1: CAATCTGAATTCCGGTCTCCC
DNA 2: TGGTGGCTACGACGGGATT
B26: CGUUGAU (DNA:RNA)
RNA: B4 RNA with A26G, C27U, A28U, C30A, G31U
DNA 1: CAATCTGAATTCCGGTCTCCC
DNA 2: TGGTGGCTACGACGGGATT
B27: GGAGGGC (DNA:RNA)
RNA: B1 RNA with U25G, U29G, U30G
DNA 1: CAATCTGAATTCCGGTCTCCC
DNA 2: TGGTGGCTACGACGGGATT
B28: CGACGCC (DNA:RNA)
RNA: B4 RNA with A26G, C27A, A28C, G31C
DNA 1: CAATCTGAATTCCGGTCTCCC
DNA 2: TGGTGGCTACGACGGGATT
B29: UAGGUAC (DNA:RNA)
RNA: B1 RNA with G26A, A27G, U30A
DNA 1: CAATCTGAATTCCGGTCTCCC
DNA 2: TGGTGGCTACGACGGGATT
B30: GACAGAG (DNA:RNA)
RNA: B4 RNA with C25G, C30A
DNA 1: CAATCTGAATTCCGGTCTCCC
DNA 2: TGGTGGCTACGACGGGATT
B31: CGUCUUG (DNA:RNA)
RNA: B1 RNA with U25C, A27U, G28C, C31G
DNA 1: CAATCTGAATTCCGGTCTCCC
DNA 2: TGGTGGCTACGACGGGATT

biological target: T1, RBFOX1 RRM RbFoxmut (Fox-RRM*); assay: EMSA; HiTS-Eq, 1 nM pool, 10 min; buffer printed only for the single-RNA assays: 10 mM Tris pH 7.5, 150 mM NaCl, 3.4 mM EDTA, 0.001% NP-40, 30 C; conditions: tags: His6 N-terminal (pET28a); label: 5' 32P
How it was run: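 Purified RbFox RRM, wild type or mutant, was incubated for 10 min in 50 µL with 1 nM of a 5′-radiolabelled RNA pool carrying 7 randomized nucleotides, whose flanks were annealed to DNA oligonucleotides, over a series of increasing protein concentrations. Unbound RNA was resolved on 8% native PAGE, cut out, reverse-transcribed, barcoded by PCR and sequenced on an Illumina HiSeq 2500. Relative association constants were derived from changes in read counts for each RNA species versus the control reaction and normalised to the cognate motif.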

Binder	binding signal
B1	0.0467 KA relative to UGCAUGU
B2	0.124 KA relative to UGCAUGU
B3	0.0736 KA relative to UGCAUGU
B4	0.108 KA relative to UGCAUGU
B5	0.155 KA relative to UGCAUGU
B6	0.0548 KA relative to UGCAUGU
B7	0.164 KA relative to UGCAUGU
B8	0.188 KA relative to UGCAUGU
B9	0.128 KA relative to UGCAUGU
B10	0.0829 KA relative to UGCAUGU
B11	0.0964 KA relative to UGCAUGU
B12	0.0858 KA relative to UGCAUGU
B13	0.138 KA relative to UGCAUGU
B14	0.0488 KA relative to UGCAUGU
B15	0.129 KA relative to UGCAUGU
B16	0.049 KA relative to UGCAUGU

Binder	binding signal
B17	0.142 KA relative to UGCAUGU
B18	0.124 KA relative to UGCAUGU
B19	0.0876 KA relative to UGCAUGU
B20	0.11 KA relative to UGCAUGU
B21	0.111 KA relative to UGCAUGU
B22	0.122 KA relative to UGCAUGU
B23	0.102 KA relative to UGCAUGU
B24	0.064 KA relative to UGCAUGU
B25	0.151 KA relative to UGCAUGU
B26	0.108 KA relative to UGCAUGU
B27	0.0724 KA relative to UGCAUGU
B28	0.107 KA relative to UGCAUGU
B29	0.0736 KA relative to UGCAUGU
B30	0.07 KA relative to UGCAUGU
B31	0.615 KA relative to UGCAUGU
